This note sets out measurements from publication PMC9949118 (bioRxiv, 2023).

In this assay the target is 6×His-MYC-Strep-Tag II (human, UniProt P01106-1). The assay can be described thus: MST.

B1: 6×His-MBP-GFP-MAX-Strep-Tag II (natural protein)
chain: MSDNDDIEVESDEEQPRFQSA[omitted - about 80 residues]KARSSAQLQTNYPSSDNSLYTNAKGSTISAFDGGSDSSSESEPEEPQSRKKLRMEAS
In the case of B1, the binding result was “binds”.
